In the RNAGym collection of RNA variant scans (doi:10.7554/elife.90254) one finds self-cleavage data, which are given here for 167 variants.

The source gives no read counts; variants with many changes may rest on few reads.

B1: LINE1-full (parent)
chain: UACGUAGGUGGUUUUCCCCUGAUAGUGCUAAGGGGGCCUGGAAGUUUGGACUGGGCAGAGCUCAACACAGCGUGGCAAAGUGGCUGUGGCUAGACUGCCUCUCUGGAUUCCUCGUCACUCAGCAGGGCAUCUCUGAGAGAAAUGCC

The variants in this series derive from B1. The experiment in a line: self-cleavage, relative activity (ratio to wild type); higher = more cleavage; in vitro, sequencing; the parent is a self-cleaving ribozyme.
Turning to A42G U52G U134C, the self-cleavage stood at 1.72.

On to A42G A57G U104C, for which the self-cleavage turned out to be 2.42.

In the case of A42C U62C A69U A94G A140G, the self-cleavage amounted to 0.

Turning to A42U U109G U115C U143A, the self-cleavage came to 0.23.

On to A42G U96C A141G, for which the self-cleavage came out at 0.19.

For the variant G41A A129G U143C, the self-cleavage was 1.57.

As for A42G A77G G97A, the self-cleavage turned out to be 0.17.

On to A42G A78G U104A A138U, for which the self-cleavage is 1.07.

For the variant A42G U81A U115C, the self-cleavage turned out to be 1.91.

Consider A42G G75A A107G, for which the self-cleavage is 2.24.

Regarding A42G A77U U85C C123U, the self-cleavage is 0.11.

In the case of A42U U52A A59G A140G, the self-cleavage was determined as 0.08.

Take A42G G82C C133G: the self-cleavage stood at 1.69.

For A42G U46A U115C, the self-cleavage turned out to be 1.51.

For the variant A42G U115C C120A, the self-cleavage worked out at 1.45.

Consider A42G U62C C120A, for which the self-cleavage stood at 0.03.

Consider G41U A77G A129U, for which the self-cleavage is 0.38.

As for A42U A79G G144U, the self-cleavage amounted to 1.41.

On to A42G A65G A78G G88A, for which the self-cleavage was 0.1.

Turning to A42U G60C U119G A124G, the self-cleavage came out at 0.

On to A42G U62C U115C G122U, for which the self-cleavage came out at 0.03.

G41A U62C U102C: the self-cleavage came out at 0.02.

With A42G A79U G97A U104A, the self-cleavage is 0.11.

Regarding A42G A65G A92G A138G, the self-cleavage came out at 0.

In the case of A42G A124U A141G, the self-cleavage is 0.86.

With A42G G83A U85A, the self-cleavage is 0.09.

Take A42G U46C C133A A140G: the self-cleavage amounted to 1.58.

On to A42G U47C U87A, for which the self-cleavage is 0.08.

For G41A A57U A94G, the self-cleavage was found to be 0.06.

A42C U45G U52A G82U: the self-cleavage came out at 0.94.

As for A42C G54A G82A U115C A117U, the self-cleavage came to 0.23.

As to A42U A79G U96C U100C, the self-cleavage came out at 0.11.

In the case of A42G A78U A79G, the self-cleavage was determined as 2.26.

With A42G C103A U109C, the self-cleavage was found to be 1.83.

In the case of A42G U52A U96C, the self-cleavage is 0.09.

Turning to G41U A64G G82A, the self-cleavage was determined as 0.14.

Consider A42U U108C U143C, for which the self-cleavage is 1.23.

With A42G A59G A92U U112C U134C, the self-cleavage came out at 0.

In the case of A42G U91A U112C, the self-cleavage came out at 0.68.

For A42G U45C U132C, the self-cleavage is 1.97.

As to A42G U87C U132C, the self-cleavage came to 0.13.

Regarding A42G U45C U73A, the self-cleavage stood at 1.64.

As for A42G U62A A69U U73A, the self-cleavage was 0.02.

Regarding A42U G54A U112C, the self-cleavage was 0.08.

For the variant A42G U52A A79G, the self-cleavage came to 1.1.

In the case of A42G A79G U115A, the self-cleavage is 1.23.

For the variant A42U A59G A141G, the self-cleavage came to 0.05.

Take A42G A117G A124U: the self-cleavage turned out to be 2.83.

Turning to A42U A50G C66A A77U, the self-cleavage was 0.

On to A42G U134C A136G, for which the self-cleavage was found to be 2.05.

Regarding A42G A67U U134C, the self-cleavage came out at 0.35.

As to A42G A57U A67U G135U, the self-cleavage turned out to be 0.03.

In the case of A42G A67U A77C, the self-cleavage was 0.09.

Consider A42G U134C A138U, for which the self-cleavage was found to be 1.23.

Turning to A42G A79G U112A U130C A141G, the self-cleavage was 0.77.

For the variant A42G C76U U96A A129U G144A, the self-cleavage was determined as 0.06.

Regarding A42G A57U U102C, the self-cleavage was 0.22.

Turning to A42U U46C C99U, the self-cleavage amounted to 0.41.

On to A42G A59G U119C, for which the self-cleavage worked out at 0.14.

In the case of A42G A121C A140G, the self-cleavage amounted to 1.7.

With A42G A57U A77G A129U, the self-cleavage turned out to be 0.29.

With A42U C98U U100C, the self-cleavage was 1.21.

As to A42G A67G C76U U100A A136G A141G, the self-cleavage was determined as 0.93.

On to A42G A77G A92U, for which the self-cleavage came to 2.3.

With A42G A78G U100C C118U A124G, the self-cleavage came to 0.

As to A42G G82A U143A, the self-cleavage turned out to be 1.48.

Turning to G41A U52G U62G A78U, the self-cleavage worked out at 0.15.

On to A42G U62C A129G A140U, for which the self-cleavage was found to be 0.24.

As to A42C G55C A77G U91C, the self-cleavage worked out at 0.

Take A42G G53A U87A A124G: the self-cleavage worked out at 0.12.

With A42G U112C U143G, the self-cleavage is 1.11.

On to A42C A43G U62C A141G, for which the self-cleavage is 0.

In the case of A42G U73C U134G, the self-cleavage was 0.

As to A42G A121U U130C A141G, the self-cleavage amounted to 1.7.

As to A42G A64U U96C, the self-cleavage worked out at 0.12.

Consider G41A A50G C63U C84U U115C, for which the self-cleavage stood at 0.15.

For the variant A42G A59G A69G G125A, the self-cleavage was determined as 0.09.

As for G41A U47A A78G A124G, the self-cleavage came out at 0.69.

With G41A C51U U52C A59G, the self-cleavage worked out at 0.07.

As to A42G U45C G105U U112C A117G, the self-cleavage was 2.16.

In the case of A42G U47A A67G U112C U143C, the self-cleavage is 0.26.

Take A42G G53A A57G U112C: the self-cleavage was 0.45.

Regarding A42G G53A A142U, the self-cleavage amounted to 1.63.

Turning to A42G A78G C111U, the self-cleavage is 1.02.

For the variant A42G U52A U62C, the self-cleavage was 0.06.

In the case of A42G C61A U73A A121C U134C, the self-cleavage came out at 0.05.

In the case of A42U A79G C101A, the self-cleavage was found to be 0.91.

On to A42U U108A U143C, for which the self-cleavage turned out to be 0.98.

On to A42U A77U U115C U143C, for which the self-cleavage was determined as 1.24.

For the variant A42G A69U U104A, the self-cleavage was found to be 0.04.

Turning to A42G U52C G135A, the self-cleavage turned out to be 1.16.

Turning to A42G U45G G60A A77U G93C A129G, the self-cleavage was 0.04.

With A42G U45C G49A, the self-cleavage was 1.11.

Consider A42G U96A U112C A136G, for which the self-cleavage amounted to 0.36.

In the case of A42G U85C U96A, the self-cleavage came to 0.25.

Turning to A42U U108C U112C C128U A142G, the self-cleavage amounted to 2.75.

In the case of A42G A57G A67G U115A, the self-cleavage is 0.

With A42U G72A U143C, the self-cleavage amounted to 1.18.

Turning to A42G U47C A64U A107G, the self-cleavage came to 0.81.

Turning to A42U U91C U109C, the self-cleavage was determined as 0.22.

As for G41A A43G G125U U134A, the self-cleavage was found to be 1.37.

Regarding A42G U81C G125U, the self-cleavage stood at 1.19.

Regarding A42G A77G A107G, the self-cleavage stood at 2.3.

Regarding A42G U109C A124G, the self-cleavage was 1.62.

Turning to A42G A57U U130A U134C A140G, the self-cleavage came out at 0.

Turning to A42G U100C A136G, the self-cleavage was 1.93.

Take A42G A64G A121U A141G: the self-cleavage turned out to be 0.42.

On to A42G U47G U62C U130C, for which the self-cleavage amounted to 0.

For A42G A59G A124G, the self-cleavage came to 0.05.

As to A42G U100C A121G A142G U143A, the self-cleavage was determined as 0.

As for A42G A43G A140G, the self-cleavage is 1.63.

For the variant A42G A50G G83U A138G, the self-cleavage worked out at 0.45.

In the case of A42G A50G A67G A78G, the self-cleavage worked out at 0.

As to A42G A50G A129G, the self-cleavage amounted to 0.

Turning to A42G A65C U132A, the self-cleavage was 0.

For the variant A42U U45C U109C, the self-cleavage came to 1.91.

For A42U A121G A141G, the self-cleavage is 1.33.

For the variant A42G A69G A77G, the self-cleavage worked out at 0.92.

With A42U A57G A142G, the self-cleavage was 0.61.

On to A42G A67G A94G A141G, for which the self-cleavage is 0.61.

With A42U A94U A117G U132A, the self-cleavage turned out to be 0.37.

A42G A78G U108C U115C: the self-cleavage came to 1.84.

A42G A79G U91A: the self-cleavage came to 0.77.

A42G A59U U85A U104C A121U U130C U134C: the self-cleavage was 0.

With A42G G86A A129C, the self-cleavage is 0.

With A42G A92G A129G, the self-cleavage amounted to 0.

Consider A42G U52C G122A, for which the self-cleavage stood at 1.73.

On to A42G G97A U134A, for which the self-cleavage is 0.07.

For A42G U52A A136G A138G U143C, the self-cleavage was determined as 1.25.

A42G G72A U130A: the self-cleavage is 1.23.

Consider A42U U45C U85A, for which the self-cleavage was 0.04.

For A42C U46C A92U A107U U119A, the self-cleavage stood at 0.58.

A42G A77G A142G: the self-cleavage worked out at 2.34.

A42G A64G G126A: the self-cleavage turned out to be 0.07.

On to A42G U52A U130C, for which the self-cleavage stood at 1.11.

For the variant A42G G74A A79G U115C, the self-cleavage stood at 2.63.

For the variant A42U A59U A65U G72U C98G, the self-cleavage turned out to be 0.02.

As to A42G U87C C118A, the self-cleavage stood at 0.32.

Regarding A42G A124U U132A, the self-cleavage is 2.34.

Turning to G41A G75A A140G, the self-cleavage was 1.42.

On to A42G A67U U100C U134C, for which the self-cleavage came out at 0.18.

As to A42U A43G U100C A140G, the self-cleavage is 0.59.

Regarding A42G A77G U87C, the self-cleavage was determined as 0.

A42U U85C U100C A142G C146U: the self-cleavage came to 0.53.

With G41A A50G U119A, the self-cleavage stood at 0.91.

In the case of G41U U47C U102C, the self-cleavage was 1.11.

On to A42G U104C A117G, for which the self-cleavage came to 2.76.

Turning to A42G U47C U132C A141G, the self-cleavage came to 2.19.

Regarding A42U A50G A57G G122U, the self-cleavage worked out at 0.19.

For A42G A92G G93A U130A U134C, the self-cleavage is 0.26.

On to A42G A57G G122U, for which the self-cleavage turned out to be 0.98.

On to G41A U46C U52C A138G, for which the self-cleavage was found to be 1.14.

For A42G U47C U115A, the self-cleavage worked out at 0.88.

As to A42U G93U U134C, the self-cleavage turned out to be 0.07.

Take G41A A42G U108C G114A: the self-cleavage amounted to 1.41.

In the case of A42U G72A C98G A136U A142G, the self-cleavage turned out to be 0.04.

Take A42C U73G U96A: the self-cleavage came to 0.

For the variant A42G U62A U104C C128U A136G A141G, the self-cleavage worked out at 0.04.

As for G41A U85C U100C, the self-cleavage turned out to be 0.03.

A42U A64G A117U: the self-cleavage is 0.11.

A42G G80A G126A: the self-cleavage turned out to be 1.7.

With A42G U81C A140G, the self-cleavage turned out to be 2.09.

For the variant A42G A57U C76U, the self-cleavage stood at 0.17.

For A42G A59G A129G U143C, the self-cleavage was 0.07.

On to A42G U87C A141U, for which the self-cleavage is 0.12.

On to A42U A124G A140U, for which the self-cleavage came out at 0.62.

On to A42U U46A U73C U100A U143C, for which the self-cleavage turned out to be 0.42.
